# Source: the supplement of paper PMC8728848
# The other results are listed elsewhere or left out.
# B1: Arath Fbox LD (Arabidopsis thaliana) (protein)
# chain: EFSVWLEKASGKRCLMLSAMNLSIIWGDNPQYWQWIPIPESRFEKVAKLRDVCWFEIRGRTNTRVLSPRTRYSAYIVFKGVDKCYGFQNVAIEAAVGVVGQEPSRRLICFSEAIRRGRRNVVKPKQREDGWMEIELGEFFNDGGIMDNDEIEMSALETKQLNRKCGLIIQGIEIRPAKILAAASFLEQKLISEEDLNSAVDHHHHHH
# Tests used:
# Assay in all cases: glycan array binding signal (z-score within array); higher = stronger binding
# Conditions in all cases: glycan notation: IUPAC condensed, linker removed
# [1] = molecular target: Fuc(a1-3)GlcNAc
# Procedure, shortened: (§1)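 From the Consortium for Functional Glycomics database, 3228 arrays were curated, keeping only those whose protein sequence was available. Binding is given as a within-array Z-score averaged across arrays sharing a protein sequence and across linkers. Negative Z-scores can be read as non-binding.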
# [2] = molecular target: Fuc(a1-3)[Gal(b1-4)]Glc6S
# Procedure, shortened: as §1
# [3] = molecular target: Fuc(a1-3)[Gal(b1-4)]GlcNAc
# Procedure, shortened: as §1
# [4] = molecular target: Fuc(a1-3)[Gal(b1-4)]GlcNAc(b1-2)Man
# Procedure, shortened: as §1
# [5] = molecular target: Fuc(a1-3)[Gal(b1-4)]GlcNAc(b1-2)Man(a1-3)[Fuc(a1-3)[Gal(b1-4)]GlcNAc(b1-2)Man(a1-6)]Man(b1-4)GlcNAc(b1-4)GlcNAc
# Procedure, shortened: as §1
# [6] = molecular target: Fuc(a1-3)[Gal(b1-4)]GlcNAc(b1-2)Man(a1-3)[Fuc(a1-3)[Gal(b1-4)]GlcNAc(b1-2)Man(a1-6)]Man(b1-4)GlcNAc(b1-4)[Fuc(a1-6)]GlcNAc
# Procedure, shortened: as §1
# [7] = molecular target: Fuc(a1-3)[Gal(b1-4)]GlcNAc(b1-3)Gal(b1-3)[Fuc(a1-4)]GlcNAc
# Procedure, shortened: as §1
# [8] = molecular target: Fuc(a1-3)[Gal(b1-4)]GlcNAc(b1-3)Gal(b1-4)[Fuc(a1-3)]GlcNAc
# Procedure, shortened: as §1
# [9] = molecular target: Fuc(a1-3)[Gal(b1-4)]GlcNAc(b1-3)Gal(b1-4)[Fuc(a1-3)]GlcNAc(b1-3)Gal(b1-4)[Fuc(a1-3)]GlcNAc
# Procedure, shortened: as §1
# [10] = molecular target: Fuc(a1-3)[Gal(b1-4)]GlcNAc(b1-3)GalNAc
# Procedure, shortened: as §1
# [11] = molecular target: Fuc(a1-3)[Gal(b1-4)]GlcNAc(b1-6)GalNAc
# Procedure, shortened: as §1
# [12] = molecular target: Fuc(a1-3)[Gal(b1-4)]GlcNAc(b1-6)[Gal(b1-3)GlcNAc(b1-3)]Gal(b1-4)Glc
# Procedure, shortened: as §1
# [13] = molecular target: Fuc(a1-3)[Gal(b1-4)]GlcNAc6S
# Procedure, shortened: as §1
# [14] = molecular target: Fuc(a1-3)[Gal3S(b1-4)]Glc
# Procedure, shortened: as §1
# [15] = molecular target: Fuc(a1-3)[Gal3S(b1-4)]GlcNAc
# Procedure, shortened: as §1
# [16] = molecular target: Fuc(a1-3)[Gal3S(b1-4)]GlcNAc6S
# Procedure, shortened: as §1
# [17] = molecular target: Fuc(a1-3)[GalNAc(b1-4)]GlcNAc
# Procedure, shortened: as §1
# [18] = molecular target: Fuc(a1-3)[GalNAc(b1-4)]GlcNAc6S
# Procedure, shortened: as §1
# [19] = molecular target: Fuc(a1-4)GlcNAc
# Procedure, shortened: as §1
# [20] = molecular target: Fuc(b1-3)GlcNAc
# Procedure, shortened: as §1
# [21] = molecular target: Gal(a1-2)Gal
# Procedure, shortened: as §1
# [22] = molecular target: Gal(a1-3)Gal
# Procedure, shortened: as §1
# [23] = molecular target: Gal(a1-3)Gal(b1-3)GlcNAc
# Procedure, shortened: as §1
# [24] = molecular target: Gal(a1-3)Gal(b1-3)GlcNAc(b1-2)Man
# Procedure, shortened: as §1
# [25] = molecular target: Gal(a1-3)Gal(b1-3)GlcNAc(b1-2)Man(a1-3)[Gal(a1-3)Gal(b1-3)GlcNAc(b1-2)Man(a1-6)]Man(b1-4)GlcNAc(b1-4)GlcNAc
# Procedure, shortened: as §1
# [26] = molecular target: Gal(a1-3)Gal(b1-3)GlcNAc(b1-3)GalNAc
# Procedure, shortened: as §1
# [27] = molecular target: Gal(a1-3)Gal(b1-3)GlcNAc(b1-6)GalNAc
# Procedure, shortened: as §1
# [28] = molecular target: Gal(a1-3)Gal(b1-3)[Fuc(a1-4)]GlcNAc(b1-2)Man(a1-3)[Gal(a1-3)Gal(b1-3)[Fuc(a1-4)]GlcNAc(b1-2)Man(a1-6)]Man(b1-4)GlcNAc(b1-4)GlcNAc
# Procedure, shortened: as §1
# [29] = molecular target: Gal(a1-3)Gal(b1-4)Glc
# Procedure, shortened: as §1
# [30] = molecular target: Gal(a1-3)Gal(b1-4)GlcNAc
# Procedure, shortened: as §1
# [31] = molecular target: Gal(a1-3)Gal(b1-4)GlcNAc(b1-2)Man
# Procedure, shortened: as §1
# [32] = molecular target: Gal(a1-3)Gal(b1-4)GlcNAc(b1-2)Man(a1-3)[Gal(a1-3)Gal(b1-4)GlcNAc(b1-2)Man(a1-6)]Man(b1-4)GlcNAc(b1-4)GlcNAc
# Procedure, shortened: as §1
# [33] = molecular target: Gal(a1-3)Gal(b1-4)GlcNAc(b1-3)GalNAc
# Procedure, shortened: as §1
# [34] = molecular target: Gal(a1-3)Gal(b1-4)GlcNAc(b1-6)GalNAc
# Procedure, shortened: as §1
# [35] = molecular target: Gal(a1-3)Gal(b1-4)[Fuc(a1-3)]GlcNAc
# Procedure, shortened: as §1
# [36] = molecular target: Gal(a1-3)Gal(b1-4)[Fuc(a1-3)]GlcNAc(b1-2)Man(a1-3)[Gal(a1-3)Gal(b1-4)[Fuc(a1-3)]GlcNAc(b1-2)Man(a1-6)]Man(b1-4)GlcNAc(b1-4)GlcNAc
# Procedure, shortened: as §1
# [37] = molecular target: Gal(a1-3)GalNAc
# Procedure, shortened: as §1
# [38] = molecular target: Gal(a1-3)[Gal(a1-4)]Gal(b1-4)GlcNAc
# Procedure, shortened: as §1
# [39] = molecular target: Gal(a1-4)Gal(b1-3)GlcNAc(b1-2)Man(a1-3)[Gal(a1-4)Gal(b1-3)GlcNAc(b1-2)Man(a1-6)]Man(b1-4)GlcNAc(b1-4)GlcNAc
# Procedure, shortened: as §1
# [40] = molecular target: Gal(a1-4)Gal(b1-4)Glc
# Procedure, shortened: as §1
# [41] = molecular target: Gal(a1-4)Gal(b1-4)GlcNAc
# Procedure, shortened: as §1
# [42] = molecular target: Gal(a1-4)Gal(b1-4)GlcNAc(b1-2)Man(a1-3)[Gal(a1-4)Gal(b1-4)GlcNAc(b1-2)Man(a1-6)]Man(b1-4)GlcNAc(b1-4)GlcNAc
# Procedure, shortened: as §1
# [43] = molecular target: Gal(a1-4)Gal(b1-4)GlcNAc(b1-3)Gal(b1-4)Glc
# Procedure, shortened: as §1
# [44] = molecular target: Gal(a1-4)GlcNAc
# Procedure, shortened: as §1
# [45] = molecular target: Gal(a1-6)Glc
# Procedure, shortened: as §1
binder,measurement,setting,value
B1,glycan array binding signal (z-score),[1],-0.276
same,glycan array binding signal (z-score),[2],-0.335
same,glycan array binding signal (z-score),[3],0.2
same,glycan array binding signal (z-score),[4],-0.442
same,glycan array binding signal (z-score),[5],-0.396
same,glycan array binding signal (z-score),[6],2.04
same,glycan array binding signal (z-score),[7],-0.585
same,glycan array binding signal (z-score),[8],0.104
same,glycan array binding signal (z-score),[9],0.218
same,glycan array binding signal (z-score),[10],-0.455
same,glycan array binding signal (z-score),[11],-0.485
same,glycan array binding signal (z-score),[12],-0.56
same,glycan array binding signal (z-score),[13],-0.461
same,glycan array binding signal (z-score),[14],-0.156
same,glycan array binding signal (z-score),[15],1.06
same,glycan array binding signal (z-score),[16],-0.382
same,glycan array binding signal (z-score),[17],-0.431
same,glycan array binding signal (z-score),[18],-0.329
same,glycan array binding signal (z-score),[19],-0.362
same,glycan array binding signal (z-score),[20],-0.104
same,glycan array binding signal (z-score),[21],-0.171
same,glycan array binding signal (z-score),[22],0.075
same,glycan array binding signal (z-score),[23],9.37
same,glycan array binding signal (z-score),[24],1.04
same,glycan array binding signal (z-score),[25],2.08
same,glycan array binding signal (z-score),[26],-0.11
same,glycan array binding signal (z-score),[27],-0.583
same,glycan array binding signal (z-score),[28],2.84
same,glycan array binding signal (z-score),[29],-0.127
same,glycan array binding signal (z-score),[30],0.134
same,glycan array binding signal (z-score),[31],-0.233
same,glycan array binding signal (z-score),[32],0.168
same,glycan array binding signal (z-score),[33],-0.448
same,glycan array binding signal (z-score),[34],-0.577
same,glycan array binding signal (z-score),[35],0.109
same,glycan array binding signal (z-score),[36],0.64
same,glycan array binding signal (z-score),[37],-0.496
same,glycan array binding signal (z-score),[38],1.55
same,glycan array binding signal (z-score),[39],-0.133
same,glycan array binding signal (z-score),[40],-0.229
same,glycan array binding signal (z-score),[41],-0.551
same,glycan array binding signal (z-score),[42],-0.219
same,glycan array binding signal (z-score),[43],-0.611
same,glycan array binding signal (z-score),[44],-0.538
same,glycan array binding signal (z-score),[45],-0.389
